# From the supplement of paper PMC3334620
# Over roughly 33,000 sequences, “E-score (-0.5 to 0.5)” has its median near -0.013; the highest 2% begin near 0.3. Some of the results follow.
# Biological target: T1, Msn1 (UniProt P22148)
# T1 sequence: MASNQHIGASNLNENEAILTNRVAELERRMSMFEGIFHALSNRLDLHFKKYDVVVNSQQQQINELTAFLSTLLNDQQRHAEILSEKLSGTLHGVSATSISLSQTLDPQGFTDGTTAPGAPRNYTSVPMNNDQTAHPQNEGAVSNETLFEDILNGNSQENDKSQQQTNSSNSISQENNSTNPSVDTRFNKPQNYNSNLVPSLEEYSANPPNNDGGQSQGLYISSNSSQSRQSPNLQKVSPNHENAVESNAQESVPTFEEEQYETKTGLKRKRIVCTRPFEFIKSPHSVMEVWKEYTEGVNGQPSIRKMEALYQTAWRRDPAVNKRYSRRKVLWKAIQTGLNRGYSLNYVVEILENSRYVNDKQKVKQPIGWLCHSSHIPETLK
# Test: PBM E-score (8-mer binding enrichment) (E-score (-0.5 to 0.5)); higher = stronger / more preferred TF binding; most listed sequences are background and not binding sites
# Details: protein concentration: 200 nM; construct: GST-full length
# Method in brief: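 Bound GST-tagged yeast transcription factors, applied at about 100-200 nM to double-stranded universal all-10-mer Agilent arrays, were detected with fluorescent anti-GST. Scans were normalised with masliner. A modified Wilcoxon-Mann-Whitney statistic, the E-score, was assigned to each ungapped eight-base word pooled with its reverse complement by the Universal PBM Analysis Suite.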
row,Sequence,PBM E-score
1,CCGGGAAG,-0.0813
2,AAGATCGC,0.0284
3,CGATACAG,0.121
4,CCAATTTC,0.00584
5,AGAGTATG,-0.143
6,CCGTCCGA,0.0831
7,ACACGTCC,0.21
8,GAACGAAA,-0.0121
9,CATTGACG,0.0256
10,CCGTAGCA,-0.0746
11,AGGTTAAC,-0.0876
12,GGTACTTA,0.00855
13,ATAGAGTC,-0.141
14,ACCTTTGC,0.00421
15,CCAGTGGG,-0.244
16,ATTATCTG,0.0964
17,CTGGAGGC,-0.262
18,ATTGCGGC,-0.00373
19,AGTTTATC,0.107
20,CTTTGCCA,-0.123
21,CCATCGTA,0.0514
22,ATTCGGGA,0.074
23,CCCGGGAA,0.0917
24,AATTCTTA,-0.0044
25,ACCGCAAA,0.14

row,Sequence,PBM E-score
1,AACATGTC,0.401
2,GACAGACA,0.414
3,AACTGCGG,0.0882
4,CGACAACG,0.144
5,ATTAACGA,0.174
6,AATAGAGG,-0.0697
7,AAGTTTGG,0.142
8,ATCTTACG,0.0146
9,CCGCCGAG,-0.0459
10,AAGCGAGT,0.153
11,ACTTATAG,-0.103
12,ATAAAGAC,0.162
13,ATTAAAAG,0.156
14,ATCCGCTC,-0.22
15,GTCGCGTA,0.186
16,AAACGCGA,0.0192
17,ATCGCCAT,-0.107
18,CGAAGTAC,0.0703
19,CATCGGCA,-0.0221
20,CATCTTGG,-0.0375
21,AGTGATAT,-0.0408
22,TGAGAACA,-0.0303
23,GAAGGGGC,-0.168
24,GGATTACA,-0.105
25,ACACACAC,0.0227

row,Sequence,PBM E-score
1,CGAGAATA,0.0249
2,GCAGTACA,0.109
3,TACTTGAA,0.126
4,AGGGCGGG,-0.184
5,AGACCAAT,0.0168
6,CAACGAAG,-0.0539
7,ATATGTTG,0.0727
8,AAGGCCAG,-0.149
9,AGCGTACT,0.02
10,CTACCAAG,0.0277
11,AGGTGCAA,-0.061
12,GTCGAGAA,0.0485
13,CCCCAAAG,-0.247
14,GGAAATCA,-0.0501
15,GTGAAGAA,0.0558
16,ATATCTCC,0.121
17,ATGGACAG,0.251
18,GAACGTCA,-0.11
19,GGAAGAGA,0.0243
20,CCGCCAGC,-0.278
21,CGGTATTA,-0.0986
22,ACAGATGG,-0.0439
23,ACACGTGT,-0.0849
24,AGGATGAC,0.0513
25,ATGGTCGA,0.0685

row,Sequence,PBM E-score
1,GGAGACTA,-0.049
2,GATATGGC,-0.323
3,ATTTCATG,-0.101
4,ATTGAGTA,0.162
5,CGAAATGA,0.15
6,CAGAAGGC,-0.207
7,CCGGGAGG,-0.314
8,AGACAGAA,0.00949
9,CTGTTGGA,0.0781
10,AGCGGGAT,-0.231
11,AAGGACCA,-0.0926
12,ATATCGCA,-0.101
13,CGGATAAC,0.154
14,GAACCGAC,0.0771
15,CAGTATCC,0.0646
16,CTCCCTAC,-0.167
17,GGGCGCAC,-0.147
18,ATAAAATG,0.341
19,ACTCTGGC,0.00726
20,AATATTAC,0.101
21,CGTGGTCA,-0.144
22,AGAGTCAT,-0.0634
23,GCGCGTTA,0.163
24,AGCGTCAA,-0.15
25,ACTTCGAA,0.167

row,Sequence,PBM E-score
1,ATTGACGC,-0.0689
2,ATAACAAT,0.00977
3,TAAGGGGA,-0.0448
4,ACCCCCAC,-0.357
5,ATCATCGG,-0.0791
6,GGGTTTGA,0.0837
7,ATTTCGGA,0.239
8,GTGTGTCA,0.211
9,GGACACGA,0.396
10,CATCAGAA,0.00838
11,AGGGCTGC,-0.212
12,GAAACCCC,-0.194
13,CAGTCCTA,0.0807
14,ACCGGACT,0.0676
15,CAGCGATG,-0.111
16,GAGCCAAC,-0.104
17,GAGTTGAC,0.0485
18,AGTTCCCG,-0.0612
19,AGCAAGAA,-0.0616
20,AACTAGGC,-0.078
21,CGCTTCCG,0.0365
22,GTCTGCAC,-0.027
23,AAAGAGCC,-0.262
24,ATGGCCTG,-0.136
25,CTTTGCTC,-0.0119

row,Sequence,PBM E-score
1,AGCTTAAG,-0.0841
2,TAGCTGAA,-0.108
3,ACATCACG,0.161
4,ACCGCCCC,-0.2
5,TACACTAA,0.0915
6,ATGAGATG,0.00393
7,CCCCGCTC,-0.326
8,ACGGTCCA,-0.114
9,GCTATATA,0.0156
10,CGATCAAC,-0.107
11,CCACGGAC,0.115
12,CGAGCCAA,-0.0147
13,GTCGCCTA,-0.0841
14,AGCGAGCA,-0.0774
15,AATACGCA,-0.151
16,ACGCGGGC,-0.109
17,AGGTATTC,0.0358
18,ACACCAGG,-0.109
19,CTCGCTCC,-0.0169
20,AAATCAAC,0.0362
21,CGATAATC,-0.161
22,ACGTCACC,-0.0947
23,CAAGTCCC,0.148
24,GTGGGACA,0.455
25,ATGTCCAC,0.446

row,Sequence,PBM E-score
1,ATCCTATA,0.214
2,GACCGTAC,-0.291
3,CACTGAAA,0.0169
4,CATAGCCA,-0.0819
5,AGTCGCTA,-0.0278
6,CTAGGCCC,-0.389
7,GATTACAC,0.00418
8,ACCTTCAC,-0.103
9,ATATTATC,0.0685
10,GCAAGGGA,-0.198
11,AGCGGGTG,-0.199
12,CGGACCCG,-0.0234
13,ACCTCATC,-0.152
14,CGGGCTTA,-0.132
15,CGCATTAC,0.0774
16,GCTGCACC,-0.376
17,AACTGTAA,0.0801
18,CCCGGAAC,0.0746
19,GAGGCCGC,-0.133
20,CTACCATC,-0.244
21,ATCTCATA,-0.0891
22,AGAGCTTA,-0.0381
